# Measurements published in publication PMC4336329 (PLoS ONE, 2015).
# The campaign covered roughly 310,000 compounds. About 2,200 (0.71%) showed an effect of 50% or more. The effect is printed as a negative number. Some of the results follow.
# Biological target: human ether-à-go-go-related gene (hERG) potassium channel (human, UniProt Q12809)
# Assay: primary screen, population patch clamp on CHO cells stably expressing hERG
# human ether-à-go-go-related gene (hERG) potassium channel, sequence (Q12809 whole entry, looked up): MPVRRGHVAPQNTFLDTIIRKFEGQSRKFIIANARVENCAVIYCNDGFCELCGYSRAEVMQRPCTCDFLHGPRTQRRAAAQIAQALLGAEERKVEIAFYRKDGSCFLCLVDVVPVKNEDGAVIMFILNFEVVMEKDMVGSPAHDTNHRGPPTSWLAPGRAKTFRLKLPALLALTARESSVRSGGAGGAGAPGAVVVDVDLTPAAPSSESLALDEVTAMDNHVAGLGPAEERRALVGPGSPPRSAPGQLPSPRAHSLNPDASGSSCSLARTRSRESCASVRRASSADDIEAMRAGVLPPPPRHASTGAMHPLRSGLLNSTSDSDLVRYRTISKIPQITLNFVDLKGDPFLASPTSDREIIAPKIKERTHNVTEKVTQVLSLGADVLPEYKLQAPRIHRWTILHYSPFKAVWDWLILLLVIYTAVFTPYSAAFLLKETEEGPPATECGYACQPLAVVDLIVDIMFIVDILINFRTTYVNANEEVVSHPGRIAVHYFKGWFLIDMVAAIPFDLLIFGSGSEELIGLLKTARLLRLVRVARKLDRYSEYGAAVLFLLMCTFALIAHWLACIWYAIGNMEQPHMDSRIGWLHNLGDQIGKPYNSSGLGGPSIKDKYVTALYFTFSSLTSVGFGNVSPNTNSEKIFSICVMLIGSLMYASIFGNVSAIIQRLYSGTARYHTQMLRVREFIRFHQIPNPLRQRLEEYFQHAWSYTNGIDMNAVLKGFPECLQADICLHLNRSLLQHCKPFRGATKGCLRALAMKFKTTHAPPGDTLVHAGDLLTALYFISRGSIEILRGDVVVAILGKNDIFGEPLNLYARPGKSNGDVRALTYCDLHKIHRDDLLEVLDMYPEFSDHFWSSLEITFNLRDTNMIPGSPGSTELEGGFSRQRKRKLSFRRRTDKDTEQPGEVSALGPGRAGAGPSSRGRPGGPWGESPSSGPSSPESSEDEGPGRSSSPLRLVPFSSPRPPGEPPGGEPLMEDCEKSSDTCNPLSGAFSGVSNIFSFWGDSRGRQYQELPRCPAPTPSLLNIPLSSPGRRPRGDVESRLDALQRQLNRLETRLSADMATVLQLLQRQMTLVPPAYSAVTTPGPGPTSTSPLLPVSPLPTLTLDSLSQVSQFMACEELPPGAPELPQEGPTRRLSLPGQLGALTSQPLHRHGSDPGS
row,SMILES,"hERG current change (%, negative = inhibition) at 1uM"
1,COc1ccc(O)c(CNc2ccccc2F)c1,-2.81%
2,COC(=O)CSc1nnc(-c2ccco2)n1Cc1ccco1,-13.2%
3,CCOc1cccc(/C=N/NC(=O)c2ccc3c(c2)OCCO3)c1O,8.33%
4,O=c1[nH]c(Cc2ccccc2Cl)nc2ccccc12,17.8%
5,Cc1cccc(NC(=O)CN2CCN(CC(=O)Nc3cccc(C)c3)CC2)c1,-44.1%
6,Cc1ccccc1OCC(O)Cn1c(N2CCN(c3ccccc3)CC2)nc2c1c(=O)[nH]c(=O)n2C (centres unmarked),10.3%
7,Cc1ccc(C(=O)Nc2cc3[nH]c(=O)oc3cc2C)cc1,3.78%
8,O=c1[nH]n(-c2ncnc3c2cnn3-c2ccccc2)c(=O)c2ccccc12,18%
9,CC1CCN(C(=O)CSCC(=O)Nc2nc(-c3cccs3)cs2)CC1,11.4%
10,COc1ccccc1OCC(=O)Nc1c2c(nn1-c1ccc(C)cc1)CS(=O)(=O)C2,-6.13%
11,CCCOC(=O)/C(=C\c1ccc([N+](=O)[O-])o1)NC(=O)c1ccccc1,-36.4%
12,O=C(CN1CC(=O)Oc2ccccc21)OCC(=O)c1ccccc1,11.4%
13,S=c1[nH]ncn1/N=C/c1ccc(Br)cc1,9.92%
14,CCC(=O)n1nc(-c2cccnc2)nc1NCc1cccs1,7.2%
15,O=C(Cc1ccc(F)cc1)NCCc1ccc(F)cc1,0.36%
16,CC(=O)Nc1ccc(N=Nc2c(C)[nH]n(C(N)=S)c2=O)cc1,17.1%
17,CCCc1cc(C(=O)Nc2cccc(Cl)c2)no1,5.03%
18,CC(C)(C)NC(=O)C(c1ccccc1)N(Cc1ccco1)C(=O)c1csnn1 (centres unmarked),11.5%
19,COc1cc(-n2ccnc2SC)c(Cl)cc1Cl,7.01%
20,CC(=O)Nc1ccc(S(=O)(=O)N(C)CC(=O)NC2CCCC(C)C2C)cc1 (centres unmarked),5.99%
21,Fc1ccccc1CSCc1nc2ccccc2[nH]1,4.56%
22,COc1ccc(/C=C(\C#N)C(=O)OCC(=O)NCc2ccccc2)cc1,12.6%
23,C=CCOc1nc(-c2ccncc2)nc2ccccc12,12.6%

row,SMILES,"hERG current change (%, negative = inhibition) at 1uM"
1,COc1ccc(S(=O)(=O)NCCc2cn3nc(C)c(C)nc3n2)cc1F,9.48%
2,Cc1ccc(N=C2NC(=O)/C(=C\c3ccco3)S2)cc1,6.28%
3,O=C(CSc1nnc(Cc2cc(=O)[nH]c(=O)[nH]2)n1-c1ccccc1)N1CCCc2ccccc21,17.3%
4,COc1ccc(NS(=O)(=O)c2cn(C)c(=O)n(C)c2=O)cc1,12.3%
5,COc1ccc(N(CC(=O)N2CCN(Cc3ccccc3)CC2)S(=O)(=O)c2ccccc2)cc1,4.82%
6,Cc1nc2sccn2c(=O)c1CCN1CCC(=C(c2ccccc2)c2ccc(F)cc2)CC1,-78.8%
7,N#CC(C(=O)NCc1ccccc1)c1nc2ccccc2nc1N1CCCC1 (centres unmarked),4.79%
8,Cc1cccc(CN2CCN(CC(=O)NCCCN3CCN(c4ccc(F)cc4)CC3)C2=O)c1,-54.5%
9,COc1cc2c(c(OC)c1OC)-c1ccc(OC)c(=O)cc1[C@@H](N(C)CC#CCO)CC2,14.6%
10,O=C(N/N=C\c1ccncc1)c1ccccc1O,0.711%
11,O=C(N1CCCCC1)N1CCN(C(=O)N(c2ccccc2)c2ccccc2)CC1,7.33%
12,COc1ccc(/C=C/C(=O)NCc2ccc3c(c2)OCO3)cc1OC,9.85%
13,CCc1ccc(S(=O)(=O)N(C(=O)c2ccncc2)c2ccc(OC(=O)c3ccncc3)cc2)cc1,11.6%
14,Cc1ccc2cc(CN(CCc3ccccc3)C(=S)NCCCN(C)C)c(=O)[nH]c2c1,-41.1%
15,Cc1nc2ccccc2c(=O)n1/N=C/c1ccco1,-1.99%
16,Cn1c(=O)[nH]c2cc(Cl)cnc21,6.92%
17,Cc1ccc(S(=O)(=O)N(CC(=O)N2CCCCCC2)c2ccccc2)cc1,-1.11%
18,CC1CC(C)CN(C(=O)COC(=O)c2cn(C)c3ccccc23)C1 (centres unmarked),9.34%
19,Cc1oc(-c2ccccc2F)nc1CS(=O)(=O)CC(=O)NCc1ccco1,-4.73%
20,O=C(O)/C(=C/c1cccnc1)NC(=O)c1ccccc1,13.9%
21,O=C(CSc1nc(C(F)(F)F)cc(=O)[nH]1)NCc1ccc2c(c1)OCO2,12.5%
22,COCCNC(=O)CN1C(=O)CC(C)(C)S(=O)(=O)c2ccccc21,17.4%
23,COc1ccccc1/C=C/C(=O)NC(=S)NC(C)C,2.84%

row,SMILES,"hERG current change (%, negative = inhibition) at 1uM"
1,COc1ccc(/C=N/Nc2ccccc2C(=O)O)cc1,18.8%
2,C#CCOCCOCCOCCNc1nc(N2CCN(C(=O)[C@H](CCCCN)n3cc([C@@H](N)CO)nn3)CC2)nc(N2CCN(C(=O)[C@H](Cc3cc4ccccc4[nH]3)n3cc([C@@H](N)CO)nn3)CC2)n1.Cl,17.1%
3,CCCc1cc(=O)oc2cc(C)cc(OCC(=O)NC(Cc3ccc(Cl)cc3)C(=O)O)c12 (centres unmarked),13.2%
4,Cc1[nH][nH]c(=O)c1C(c1ccc(-c2ccc(Cl)c(Cl)c2)o1)c1c(C)[nH][nH]c1=O,15.8%
5,Cc1c(C(=O)C(=O)N2CCC3(CC2)OCCO3)c2ccccc2n1C,11.3%
6,O=C(NCCCNC(=O)c1ccc(Cl)cc1Cl)c1ccco1,-1.77%
7,Cc1c(C(=O)c2ccc(Cl)cc2[N+](=O)[O-])c2ccccn2c1CCC#N,1.86%
8,NC(=O)CC(NC(=O)Cc1ccc(Br)cc1)c1ccc(N2CCc3ccccc3C2)c([N+](=O)[O-])c1 (centres unmarked),9.06%
9,Cc1occc1C(=O)Nc1c(F)cc(F)cc1Br,-5.86%
10,CC(=O)C1=C(O)C(=O)N(CCc2ccccc2)C1c1ccccc1[N+](=O)[O-] (centres unmarked),12.9%
11,Cc1ccc(C)c(N2CCN(C3CCCCC3NS(=O)(=O)c3ccccc3)CC2)c1 (centres unmarked),20.1%
12,O=C(Nc1ccc(Cl)cn1)c1cnn2cccnc12,7.42%
13,C=CCc1cccc(/C=N/NC(=O)CNc2ccccc2)c1O,-9.99%
14,CCCOC(=O)CSc1nnc(-c2ccccc2Cl)o1,9.72%
15,NC(=O)c1c(NC(=O)c2ccccc2Cl)sc2c1CCC2,12.2%
16,CC(C)(C)c1cnnn1-c1ccc(C=O)cc1,9.48%
17,O=c1c2ccccc2c(C=Nc2ccc(O)cc2)c(O)n1Cc1ccccc1,9.19%
18,O=C(CN1CCOCC1)Nc1ccc(-c2nc3ccccc3[nH]2)cc1,8.79%
19,CCOc1ccccc1OCCCC(=O)Nc1sccc1C(N)=O,18.4%
20,O=S(Cc1ccc(Br)cc1)Cc1nnc(SCc2c(F)cccc2Cl)n1-c1ccccc1 (centres unmarked),0.505%
21,C1=CC2C3C=CC(C3)C2C1 (centres unmarked),11.2%
22,CCC(=O)NC(Nc1sc2c(c1C(=O)OC)CCN(C)C2)(C(F)(F)F)C(F)(F)F,-4.22%
23,O=C(NCC1CC1)c1ccc2c3n(nc2c1)-c1ccc(Cl)cc1CO3,9.46%

row,SMILES,"hERG current change (%, negative = inhibition) at 1uM"
1,NC(=O)c1oc2ccccc2c1NC(=O)C1CCCCC1,2.69%
2,Cc1ccc(OCCCCN2CCc3ccccc3C2)cc1.Cl,-0.885%
3,Cc1ccc2c(CC(=O)NCC(=O)Nc3c(C)cccc3C)coc2c1,7.18%
4,C=CCn1c(SCC(=O)Nc2cc(Cl)ccc2C(=O)O)nc2sc(C)c(C)c2c1=O,5.99%
5,Cc1[nH]cnc1CSCc1ccc(Cl)cc1.Cl,-4.76%
6,CCOc1ccc(Br)cc1CNCc1cccnc1,10.5%
7,COc1ccc(/C=C2/CCc3ccccc3C2=O)cc1OC,-2.68%
8,COc1ccc2cc(C(=O)N3CCCCCC3)sc(=O)c2c1OC,1.33%
9,Cc1ccc(-c2nc(N)nc(N)n2)c(C)c1,16.1%
10,CCOc1cc(/C=C2\C(=O)NC(=O)N(CCc3ccc(F)cc3)C2=O)ccc1O,-1.56%
11,O=C(Cc1ccc(Cl)cc1Cl)NCc1cccnc1,10.8%
12,CC(C)CCNC(=O)c1onc(CSc2ccc(Cl)cc2)c1C(=O)NCCC(C)C,20.7%
13,CC1CCCN(C2=NC(=O)/C(=C/c3cn(-c4ccccc4)nc3-c3cccc(S(=O)(=O)N(C)C)c3)S2)C1 (centres unmarked),-3.81%
14,Cc1nn2cnc3sc4c(c3c2nc1=O)CCCC4,6.71%
15,COC(=O)Cc1c[nH]c2ccc(OCC(O)CNC(C)C)cc12.O=C(O)c1ccccc1 (centres unmarked),8.25%
16,C#CCCCCCCCCC(=O)NCCCC,6.09%
17,Cc1nc2oc(C(=O)c3ccccc3)c(N)c2c2c1COC(C)(C)C2,5.85%
18,Cc1sc2ncnc(N3CCC(C(=O)Nc4nc(-c5ccc(F)cc5)cs4)CC3)c2c1C,10.9%
19,CCCCN(C(=O)NC(=O)Nc1ccc(C)cn1)S(C)(=O)=O,16.5%
20,Cn1nc(C(F)(F)F)c(/C=N/OC(=O)c2ccccc2)c1Sc1ccc(Cl)cc1,12%
